The list shows a part of the results. Shown are side measurements of this screen, not its main read-out; they come without a call. The list favours compounds with an active or inconclusive main result.

For this experiment, the target named is Runt-related transcription factor 1 (Homo sapiens) + Core-binding factor subunit beta (Homo sapiens) (UniProt Q01196+Q13951). The experiment in a line: inhibitors of RUNX1 Runt–CBFb-SMMHC binding, primary screen, biochemical, FRET, Cerulean-Runt, Venus-CBFb-SMMHC, uHTS (AID 1434).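 Also: 0% = DMSO wells and 100% = wells with excess untagged CBFb-SMMHC; inhibitors lower the FRET ratio by blocking Runt binding to CBFb-SMMHC.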 The settings on record: Cerulean-Runt/Venus-CBFb-SMMHC FRET ratio 530/480, 1 h; retest duplicate average; at 20 µM; stronger effect = higher value.
UniProt Q01196, sequence (Q01196 whole entry, looked up): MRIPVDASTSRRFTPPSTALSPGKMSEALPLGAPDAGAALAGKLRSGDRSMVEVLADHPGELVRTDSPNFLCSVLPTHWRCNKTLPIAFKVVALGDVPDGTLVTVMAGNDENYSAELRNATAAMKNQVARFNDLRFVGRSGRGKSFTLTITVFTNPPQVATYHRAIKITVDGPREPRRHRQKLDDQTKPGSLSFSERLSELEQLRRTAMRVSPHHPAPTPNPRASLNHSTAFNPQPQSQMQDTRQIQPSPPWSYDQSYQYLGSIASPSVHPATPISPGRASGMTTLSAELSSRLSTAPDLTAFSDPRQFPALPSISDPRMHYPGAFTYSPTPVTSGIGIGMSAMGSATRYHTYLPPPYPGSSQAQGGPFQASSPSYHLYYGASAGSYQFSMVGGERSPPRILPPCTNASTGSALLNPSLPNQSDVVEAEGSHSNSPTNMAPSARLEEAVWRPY
UniProt Q01196, sequence (Q13951 whole entry, looked up): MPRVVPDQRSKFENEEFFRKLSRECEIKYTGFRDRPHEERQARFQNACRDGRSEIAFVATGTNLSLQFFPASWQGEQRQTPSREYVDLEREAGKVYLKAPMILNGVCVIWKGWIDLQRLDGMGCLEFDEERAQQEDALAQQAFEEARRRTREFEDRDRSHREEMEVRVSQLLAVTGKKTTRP
One may read the inhibition as the change of the read-out against control, counted positive when it falls. In the case of `CCCOc1ccccc1-c1nc2c([nH]1)c(=O)[nH]c(=O)n2C`, the inhibition turned out to be 171%.
In the case of `COC(=O)C1=CN(CCCN2CCCC2=O)C=C(C(=O)OC)C1c1cccs1` it was 86.3%; in that of `c1ccn2cc(-c3ccc4c(c3)OCO4)cc2c1`, 92.9%; in that of `C=CCNc1nc(NCc2ccccc2)c(C#N)c2c1CN(C)CC2`, 72.9%.
In the case of `CCCCn1c(NC(=O)c2ccccc2Cl)c(C#N)c2nc3ccccc3nc21` it was 72.9%; in that of `COc1ccc(C)cc1NC(=O)c1cc2c(=O)n3ccccc3nc2n1C`, 70.6%; in that of `CCSc1n[nH]c2nc3c(c(=O)n12)C1(CCCC1)Cc1ccccc1-3`, 50.8%.
As for `CCN(CC)c1ccc(-c2nn3c(-c4cccnc4)nnc3s2)cc1`, the inhibition amounted to 91.9%.
In the case of `CCN(CC)c1ccc2cc(C(=O)Nc3cccnc3N3CCOCC3)c(=O)oc2c1` it was 98.8%; in that of `Cc1cccn2c(=O)c(/C=C(\C#N)C(=O)NC3CCS(=O)(=O)C3)c(N3CCC(C)CC3)nc12` (stereo unspecified), 71.5%; in that of `CN1CC2(Cc3c1ccc1ccccc31)C(=O)OC(C)(C)OC2=O`, 118%.
In the case of `CC(=O)c1cc2c(s1)-c1cc(F)ccc1OC2` it was 70.6%; in that of `CN1Cc2sc(NC(=S)NC(=O)c3ccccc3)c(C#N)c2CC1(C)C`, 136%.
As to `CN(C)c1cccc(C(=O)OCc2cc(=O)oc3cc(O)ccc23)c1`, the inhibition is 128%.
For `CN(C)c1ccc(/C=C(\Cl)c2nc3ccccc3s2)cc1`, the inhibition was 60.2%.
The result for `CC1=C(C(=O)OCC2CCCO2)C(c2ccc(C)cc2)C2=C(CC(C)(C)CC2=O)N1` (stereo unspecified) reads 60.4%; that for `CCN1C=C(C(=O)OC)C(c2cccc(C)c2)C(C(=O)OC)=C1`, 72.9%; that for `CCCCC(CC)Cn1c(N)c(C#N)c2nc3ccccc3nc21` (stereo unspecified), 116%.
The result for `COc1ccc(-n2c3nc4ccccc4nc3c3c(=N)oc(C)nc32)cc1` reads 127%.
The result for `Nc1nc2nc(-c3cccs3)cc(C(F)(F)F)n2n1` reads 70.6%; that for `N#Cc1c(N)n(-c2ccc(C(=O)O)cc2)c2nc3ccccc3nc12`, 70.6%.
On to `CCN(CC)Cc1c(O)ccc2c(C)c(CC(=O)OC)c(=O)oc12`, for which the inhibition worked out at 171%.
In the case of `COC(=O)C1=CN(Cc2cccs2)C=C(C(=O)OC)C1c1ccc(OC)cc1OC` it was 144%; in that of `CCOc1cc(C2C3=C(CCCC3=O)N(CCC(=O)O)C3=C2C(=O)CCC3)ccc1OS(=O)(=O)c1ccc(C)cc1`, 71.5%; in that of `COc1cc(SSc2cc(OC)cc([N+](=O)[O-])c2N)c(N)c([N+](=O)[O-])c1`, 52.1%.
The result for `COC(=O)C1=C(C)NC2=C(C(=O)CCC2)C1c1cccc(C)n1` (stereo unspecified) reads 132%; that for `CCOC(=O)c1c(NS(=O)(=O)c2cccc(OC)c2)sc2c1CCC2`, 71.2%; that for `CCOC(=O)C1=C(C)NC2=C(C(=O)C(C(=O)OCC)C(c3ccc(OC)cc3)C2)C1c1ccccn1` (stereo unspecified), 83.7%.
In the case of `COc1cccc(C(=O)Nc2nc3c(s2)CN(C)CC3)c1` it was 70.8%.
With `COc1ccc(-c2cc(C(F)F)n3ncc(C(=O)NCC4CCCO4)c3n2)cc1` (stereo unspecified), the inhibition came to 71.5%.
The result for `O=C(O)c1cc(-c2ccc(/C=C3\NC(=O)N(c4ccccc4)C3=O)o2)ccc1Cl` reads 104%; that for `N#CC(C#N)=C1C=C2C=C(N3CCCCCC3)CCC2CC1` (stereo unspecified), 71.5%.
In the case of `CNc1nc(-c2ccccc2)[n+](-c2ccc(C)cc2)s1` it was 56.7%.
For `COc1cc2nc3c4ccccc4n(CC#N)c3nc2cc1OC`, the inhibition turned out to be 77.4%.
Turning to `Cc1ccc(N2C=Nc3ccc(C)c4nc(C)cc2c34)cc1`, the inhibition worked out at 86.7%.
In the case of `O=C(CCCCl)Oc1ccc2cc(-c3ccc4ccccc4n3)c(=O)oc2c1` it was 71.5%; in that of `CC(NC(=O)OC(C)(C)C)C(=O)Oc1ccc2ccc(=O)oc2c1` (stereo unspecified), 117%.
The result for `Cn1c(C(=O)NCC2CCCO2)cc2c(=O)n3ccccc3nc21` (stereo unspecified) reads 54.2%; that for `CN1C=CC2=C(C#N)C(N)C(C#N)(C#N)C(c3ccccc3)C2C1` (stereo unspecified), 71.5%.
The result for `CCOCCCNC(=O)/C(C#N)=C/c1cc(Br)c(O)c(Br)c1` reads 151%; that for `Cc1cc(C)cc(Oc2nc3ccccn3c(=O)c2/C=C(\C#N)C(=O)NC2CCS(=O)(=O)C2)c1` (stereo unspecified), 88%.
Take `CCOCCCNC(=O)c1c(N)n(-c2ccc(S(N)(=O)=O)cc2)c2nc3ccccc3nc12`: the inhibition amounted to 99.3%.
The result for `Cc1cccn2c(=O)c3cc(C(N)=S)c(=N)n(CCCN4CCOCC4)c3nc12` reads 70.6%.
The result for `CCN1CCc2nc(NC(=O)CC(c3ccccc3)c3ccccc3)sc2C1` reads 52.2%.
In the case of `Cc1ccccc1-n1c(=O)cc(N2CCc3ccccc3C2)[nH]c1=O` it was 84.8%; in that of `Cc1ccccc1-n1c(=O)c(C#N)cc2c(=O)n3ccccc3nc21`, 72.9%.
As to `N#Cc1cc2cc3c(cc2nc1NCCNC(=S)NCCCN1CCOCC1)OCO3`, the inhibition came to 126%.
The result for `COCCn1c(N)c(C(=O)OCc2ccccc2)c2nc3ccccc3nc21` reads 82.8%; that for `CCOC(=O)c1cc2c(=O)n3cccc(C)c3nc2n(Cc2ccccc2Cl)c1=N`, 83%.
The result for `Cc1ccc(/C=C2\Oc3c(ccc(O)c3CN3CCN(CCO)CC3)C2=O)cc1` reads 70.6%; that for `COc1ccc(C2=CC(c3ccco3)n3ncnc3N2)cc1` (stereo unspecified), 52.7%.
In the case of `CCCCn1c(=O)nc2n(-c3ccccc3C)c3ccccc3cc-2c1=O` it was 71.5%.
As to `Nc1c(C(=O)NCc2ccc(F)cc2)c2nc3ccccc3nc2n1CCCN1CCOCC1`, the inhibition came to 114%.
In the case of `CC(=O)N=c1c(C#N)cc2c(=O)n3cccc(C)c3nc2n1Cc1ccco1` it was 70.6%; in that of `Cc1ccc(Oc2nc3c(C)cccn3c(=O)c2/C=C(\C#N)C(N)=O)cc1`, 175%.
The result for `COc1cc(C(=O)Nc2sc3c(c2C#N)CCN(C(C)=O)C3)cc(OC)c1OC` reads 76.3%; that for `COc1ccccc1CCn1c(N)c(C#N)c2nc3ccccc3nc21`, 156%.
In the case of `CCOC(=O)c1cc2c(=O)n3cccc(C)c3nc2n(Cc2ccco2)c1=NC(=O)c1cccnc1` it was 102%; in that of `CC(=O)c1sc2nc(C)cc(C)c2c1N`, 69%.
Consider `CCN(CC)c1ccc2c(c1)oc(=O)c1c(Cl)cc(=O)oc12`, for which the inhibition came out at 72.9%.
In the case of `CCCc1nc2c(=O)n(C)c(=O)[nH]c2n1C` it was 179%; in that of `CCn1c2ccccc2c2c3ncc4cccn4c3ccc21`, 61.4%; in that of `N#Cc1c(N)n(CCNC(=O)c2cccs2)c2nc3ccccc3nc12`, 115%.
The result for `COc1ccc(OC)c(C2CC(=O)N3CN(c4ccccc4)CSC3=C2C#N)c1` (stereo unspecified) reads 85.4%; that for `COc1ccc(C2C3=C(CC(C)(C)CC3=O)N(C)C3=C2C(=O)CC(C)(C)C3)cc1`, 70.6%; that for `CC(C)OC(=O)CC(=O)CSc1nc2c(cc1C#N)CCCCCC2`, 84.4%.
As for `CCCOC(=O)C1=C(C)NC2=C(C(=O)CC(C)(C)C2)C1c1cccnc1` (stereo unspecified), the inhibition was determined as 126%.
The result for `Cc1ccc(S(=O)(=O)c2cc3c(=O)n4cc(C)ccc4nc3n(CC3CCCO3)c2=N)cc1` (stereo unspecified) reads 146%; that for `CCOc1ccc2nc(NCCNC(=S)NCCCN(C)C)c(C#N)cc2c1`, 70.6%; that for `Cc1cccc(/C=C(\C(=O)C(=O)O)c2ccc3ccccc3n2)c1`, 83.7%.
The result for `CCOC(=O)c1c(NC(=S)Nc2ccc(Cl)cc2)sc2c1CCN(C)C2` reads 166%.
With `CCN1CCc2c(sc(NC(=O)Nc3ccc(Cl)c(Cl)c3)c2C(N)=O)C1`, the inhibition worked out at 71.5%.
The result for `Cc1ccc(NC(=O)Cn2sc3nc(C)cc(C)c3c2=O)c(Cl)c1` reads 52.4%.
In the case of `CC(C)C(=O)N(c1ccc2oc(=O)sc2c1)S(=O)(=O)c1ccccc1` it was 61.9%; in that of `Cc1c(C=O)c2ccccn2c1C(=O)c1cccs1`, 90.1%; in that of `CCOC(=O)c1sc(Nc2nc3ccc(OC)cc3s2)cc1C`, 78.8%.
In the case of `O=C(O)c1c2c(nc3ccccc13)/C(=C/c1ccc(O)cc1)CC2` it was 70.6%.
As to `COC(=O)c1ccc(C(=O)OC)c(NC(=O)Oc2ccccc2)c1`, the inhibition amounted to 121%.
In the case of `CCOC(=O)c1cc2c(=O)n3ccccc3nc2n(Cc2ccco2)c1=NC(=O)c1cccc(OC)c1` it was 73.5%; in that of `Oc1c(C=NCc2ccccc2)sc2ccccc12`, 67.9%.
In the case of `COCCn1c(-c2cccs2)nc2nc3ccccc3nc21` it was 101%; in that of `Cc1cccn2c(=O)c3cc(S(=O)(=O)c4ccc(F)cc4)c(=N)n(Cc4ccco4)c3nc12`, 70.6%.
As for `CC(C)(C)C(=O)Oc1ccc2cc(-c3ccc4ccccc4n3)c(=O)oc2c1`, the inhibition worked out at 71.5%.
The result for `Cc1ncc(CO)c(/C=N/NC(=O)c2ccccc2Br)c1O` reads 71.5%; that for `Cc1nnc(SCc2cc(=O)oc3cc(O)ccc23)n1Cc1ccccc1`, 126%; that for `O=CN/C=C/c1cc(O)ccc1O`, 55.8%.
In the case of `Cc1cccc2cc(C#N)c(NCCNC(=S)NCCCN3CCOCC3)nc12` it was 74.6%; in that of `OCCCc1nc2n(n1)C(c1ccccc1Cl)C=C(c1cccs1)N2` (stereo unspecified), 71.5%; in that of `CCN(CC)c1ccc2cc(NC(=O)CCC(=O)O)c(=O)oc2c1`, 71.5%.
In the case of `COC(=O)c1ccc(C(=O)OC)c(NC(=S)N2CCCCC2C)c1` (stereo unspecified) it was 82.1%.
Take `Cc1ccc(C)c2nc(N3CCCC3)c(C#N)cc12`: the inhibition worked out at 101%.
Regarding `CN(/N=C/c1cc(Cl)cc(Cl)c1O)C(=S)NC(C)(C)C`, the inhibition turned out to be 70.6%.
In the case of `COc1cccc(CN2C(=O)c3cccc(N)c3C2=O)c1` it was 71.5%; in that of `CC1=CC2=NC(=O)/C(=C\c3cn(C)c4ccccc34)C(=N)N2O1`, 70.6%; in that of `N#CC(C#N)=C1C=C2C=C(N3CCCCC3)CCC2CC1` (stereo unspecified), 71.5%.
In the case of `COc1cccc(/C(O)=C2/C(=O)C(=O)N(c3cc(C)on3)C2c2cccs2)c1` (stereo unspecified) it was 119%.
The result for `COc1cc(OC)c2c(=O)c(OC)c(-c3ccc(OC)c(OC)c3)oc2c1` reads 52.3%.
With `CC(=O)Nc1c(S(=O)(=O)c2ccccc2)c2nc3ccccc3nc2n1Cc1ccccc1`, the inhibition was determined as 72.1%.
In the case of `N#CC1=C(N)N2C(=C(C#N)C1c1cccc(Br)c1)Nc1ccccc12` (stereo unspecified) it was 71.5%.
In the case of `COC(=O)c1cc(=O)n2c(sc3ccccc32)c1C#N` it was 127%.
In the case of `CCc1cc2c3c(c(=O)oc2cc1O)CCCC3`, the inhibition was determined as 169%.
In the case of `O=C1CCNc2cc3ccccc3cc21` it was 91.1%; in that of `Cc1nc2[nH]c(=O)c3c(n2n1)NC1=C(C(=O)CC(C)(C)C1)C3c1ccccc1` (stereo unspecified), 150%; in that of `Cc1cc(C)cc(Oc2nc3c(C)cccn3c(=O)c2/C=C(\C#N)C(=O)NC2CCS(=O)(=O)C2)c1` (stereo unspecified), 71.5%.
Turning to `O=[N+]([O-])c1ccc(N=Cc2sc3ccccc3c2O)cc1`, the inhibition came out at 79.4%.
In the case of `COc1cc(N2C(=O)C=CC2=O)c(OC)cc1Cl` it was 67%.

These data come from PubChem BioAssay AID1434 (Sanford-Burnham Center for Chemical Genomics, 2008).
